Laboratory results reported in patent US10046060B2, “Co-administration of an agent linked to an internalization peptide with an anti-inflammatory” (NoNO Inc., priority 2007, dated 2018).

System: Beagle dogs
Test: Antihistamine pre-treatment before Tat-NR2B9c in dogs
Conditions: benadryl 1 mg/kg 30 minutes before 12.5 mg/kg Tat-NR2B9c

CN(C)CCOC(c1ccccc1)c1ccccc1 [diphenhydramine]
Effect on angio-neurotic oedema and urticaria induced by Tat-NR2B9c: prevented the angio-neurotic oedema and urticaria reactions | Reaction after pre-treatment (male dog): slight reddening of inner skin of the ears
